Reference: the supplement of paper PMC11417369
± gives the standard deviation of the averaged measurements. The list shows a part of the results.

These sequences were tested on PfAP2-G AP2 domain (GST-tagged) (assay: gcPBM binding intensity (ln(normalized median fluorescence intensity)); higher = stronger DNA binding).
In short: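 GST-tagged P. falciparum DNA-binding domains, expressed in E. coli (about 25 μg on average), were applied for 1 h to an Agilent 4 × 180k array of primer-extended double-stranded 36-bp intergenic genomic probes plus negative controls. The binding buffer was 1× PBS with 1% milk, 0.2 mg/ml BSA, 0.5% salmon testes DNA and 0.03% Triton X-100. Bound protein was detected with Alexa488 anti-GST antibody and scanned at 488 nm. Binding intensity is the highest Masliner-normalised natural-log median intensity across replicate spots of either probe orientation.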

Sequence	gcPBM binding intensity (ln)
TTTCCTCATTTTATCATACACACTTATTTATATGTG [CACACA_site900]	10.11 ± 0.099
GCCAAAATATAATTTACACACTTATTAAATAATTAT [CACACA_site236]	9.85 ± 0.014
AGAATAATACAAAAATGTACATTAATAAAAAGATAG [XGTACX_site780]	11.2 ± 0.72
ATATATCTGTATGGCACACACGGATAAATATATATA [CACACA_site4668]	10.1 ± 0.2
TATATTTGTACATGATATTTTTTTTTTCTTTTAAAA [CACACA_negctrl_site754]	11.1 ± 0.62
TGTATTTAGAAACATACACACATATTAAGTTTACAT [CACACA_site5689]	9.955 ± 0.021
GGAAAATTATCAATAGCATGCAAAATGTGAATATTA [TGCATGCA_site901]	9.66 ± 0.22
AAAACATTGTTGAACTGTTTTATTTATAAATATAAG [XGTACX_negctrl_site393]	9.94 ± 0.16
ATATATATACTGTGTACACACATATGTATTTATATA [CACACA_site4600]	11.6 ± 0.78
ATTGAATATGGATATGTGCACATATGTATATAAGTA	10.5 ± 0.2
AATTATATGAAATAAACACACATATGTAATATTACA [CACACA_site1928]	9.86 ± 0.13
AGAAGGTAAATAATTTACCCATATATATAAATATAT [GTGCAC_negctrl_site631]	9.895 ± 0.078
TAATAACTACAAAAAAAAAAGAAAAATAGAAAAAGG [CACACA_negctrl_site1102]	9.86 ± 0.13
TCGTGTTAAACTTTTACACACAAACTTGCAATAATT [CACACA_site7745]	10.045 ± 0.007
TGCTTTATTATTTATTGTACATGTAAAATGAGAGAG [XGTACX_site2288]	11.2 ± 0.88
TTTGTTTAAATTAAATGTACATAAAGAATAATATAT [XGTACX_site5093]	11.4 ± 0.76
AAGATATCTAAGGAAATTAAACTACCAAAATATATA [TGCATGCA_negctrl_site338]	9.8 ± 0.3
TGCATAAAAGTAAAAACATGCATGCCGTGGTATCTT [TGCATGCA_site664]	9.875 ± 0.049
TGTATAATATATATATGTACTTATGTATAATATTAT [XGTACX_site4328]	11.2 ± 0.76
GACATATAAATATACACACATACGTAAGTATATTAA [CACACA_site1790]	9.98 ± 0.12
TTTTTATGGATATTTATATTATATTATGATTAAAAA [TGCATGCA_negctrl_site204]	9.725 ± 0.049
AATAATACAAAAGTTCAACAAAAAAAAAAAAAAAAT [CACACA_negctrl_site952]	10 ± 0.31
CTTTATAATATTTGTTGTACACAAATATAACATATT [XGTACX_site709]	11.6 ± 1.1
AAATATATATATATATATATATATGTGTGTGTATAT [GTGCAC_negctrl_site1]	9.735 ± 0.092
